The supplement of paper PMC3334620
The full ranking holds about 33,000 sequences; the median of “E-score (-0.5 to 0.5)” is about -0.01, and the highest 2% start at about 0.26. The list shows a part of the results.

Molecular target: Ste12 (UniProt P13574)
Experiment: PBM E-score (8-mer binding enrichment) (E-score (-0.5 to 0.5)); higher = stronger / more preferred TF binding; most listed sequences are background and not binding sites
Settings: protein concentration: 200 nM; construct: GST-DNA-binding domain
In short: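 Universal all-10-mer Agilent arrays, fresh or stripped once, were converted to double-stranded form by primer extension. GST-tagged yeast transcription factors from PURExpress in vitro transcription/translation, full-length or DNA-binding domain only, were applied at about 100-200 nM and detected with fluorescent anti-GST. After masliner normalisation, the Universal PBM Analysis Suite scored each ungapped eight-base word together with its reverse complement by E-score.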

Sequence	PBM E-score
ATTTATTG	0.0911
ATAGAAAG	0.0458
GTTGGACA	-0.21
ATTGTGTC	0.214
CAATTCTC	0.00128
GATCTCGC	-0.162
AAGTAAGT	-0.0682
AACGGCAG	0.00383
ACTTATAC	0.0485
AAAGTTAA	0.224
CTGCCGCC	-0.248
GTTGCCTA	-0.0783
CAAGTTGA	0.0872
GACCATCA	-0.112
ATTTCGTA	0.101
CTTGAGAA	0.0914
GGAGTTTA	-0.0861
AACGTTCC	-0.0942
AACAGTAT	0.108
ACTTATGG	-0.157
CCATTGAG	-0.0139
GCTGGGTA	-0.162
ATGCACTC	-0.145
ACAGATAG	-0.1
AACTTCTC	0.0155

Sequence	PBM E-score
CCGATTTC	0.00173
CCCCGCCC	0.347
ATACCAAA	0.134
CATGCAGG	-0.19
CTTCGCCC	-0.173
AGTGATGC	-0.099
GTTGAATA	0.229
AAATCAGC	0.15
GAACAATC	-0.0608
CACCATCC	-0.144
CATCACAC	0.00751
AGATTGCT	-0.196
AGATACAC	0.0755
ACCGGGCT	-0.0606
GCCGATCA	0.0313
GATTCGAA	0.277
ACTAATTA	0.202
TGGACCAA	-0.0682
ATAGACAC	-0.141
CCAACCGG	-0.063
AGTTCCTC	-0.189
AGGCGAGC	-0.201
CACCGACG	0.052
GTTAGCAA	0.0401
GGGTATGA	0.178

Sequence	PBM E-score
CCAAAAGA	0.202
AGCCTCCT	-0.0314
ACCCTAGG	-0.0167
AATGGCTA	-0.0416
CCCATAAG	-0.00968
ACATGGGG	-0.0482
CCCGGCGG	0.0682
CGTCGTCC	-0.179
GCTAACAC	0.0192
CAACGCAA	0.0466
GGCGAACA	0.0197
CGTACCTC	-0.0676
ATTCGGCG	-0.0331
AGGCGTAT	0.0111
AAATGAGC	0.0671
ATATCCAC	0.161
AGGCAACC	-0.159
ATTAAAAA	0.295
ACGTTTTC	0.147
GTCTGAAC	0.114
AAGAATTC	0.165
AAGGCGAA	-0.101
GTCCGGCA	-0.0181
TCAAGTCA	0.0747
AAAGGCGC	-0.0771

Sequence	PBM E-score
CTCGCACC	-0.103
AACCAGGC	-0.0978
TCGTGAGA	-0.0655
GTACGGCA	-0.147
GCGGACCC	-0.0894
CAACGGAA	0.114
CACAAATG	0.0373
ACTAGACG	-0.0209
AGAGAGCG	-0.231
CACCAAGC	-0.0887
CAGTCCCC	-0.071
ATGGGGGC	-0.196
GGTCTGTA	0.0858
AAGAAGTA	0.0834
AAGATACA	0.151
ATATGGGG	0.0381
CAGATTGG	-0.233
GTCACGGA	-0.0756
ATATGAAC	0.154
ACCGGCAT	0.129
CCAGTGAC	-0.241
ACACCGGC	0.104
CGACTGTA	-0.219
AAGCAGTC	-0.00293
TATCCTAA	-0.106

Sequence	PBM E-score
TAGTAAAA	0.211
ATCAAGTA	-0.023
CCATACGA	-0.227
ACAATCTG	0.087
AGTATGTA	0.118
ACGCTAGA	-0.209
ACCGAGGA	0.0937
TAGTGCCA	-0.172
CTTCACTA	0.0616
GGGTGCAA	0.0253
TAAAGATA	0.137
GGGAAAGA	-0.129
CAAGGCGC	0.016
AAAATGCG	0.154
GTCAATGA	-0.0453
ACTGAGCT	-0.277
CTGAGATA	0.0495
AAAGACTT	0.0106
ACACCGGG	-0.0722
AGACTGGG	-0.0904
GCTTGAGA	0.001
AGTACGGC	-0.107
ATAGTTTA	0.0232
CTAGACGA	-0.0176
AAGTTTAC	0.00524

Sequence	PBM E-score
TATTCTGA	0.101
CTATGGAG	-0.199
AGACTGCG	-0.18
GATGACCC	-0.167
ACTCGAAC	0.0493
ATACCTAC	-0.0415
CCAGCTCC	-0.235
GAATTGCA	0.00577
TCCACGGA	0.0111
ATATGCCC	-0.203
AATCGTTA	-0.0373
CGTGATCA	-0.00817
AGGAACTA	-0.0651
ATGCCAGG	-0.189
ATAGGAAG	0.0065
CGGTCCAA	-0.216
CTATCATC	-0.029
ACTGAGGG	-0.101
CATACAGG	-0.0981
AGATGTAA	0.0636
CCCCTGAG	0.00996
ATAAAGCA	0.118
ATATCAAG	0.139
ACTGCCAC	-0.0138
AAGCATAC	0.00103

Sequence	PBM E-score
AGTCGTCC	-0.211
CCGCCACG	-0.00392
CACCGTTC	-0.191
ACTATGGG	-0.158
ACTTGGTC	-0.0079
GTTTTCAA	0.32
GGAGCATA	0.136
ACATGTCG	-0.0365
ATCATGGC	-0.0299
GGCGCTGA	-0.16
GGATCGCA	0.0402
CCAGGAGA	-0.24
CATGGAGA	-0.0888
CCTGATAA	-0.0419
CCCCTAAA	-0.0522
GGGTCCGA	-0.0934
TAACGGTA	-0.053
TACTTTGA	0.167
CCTAACAA	0.131
CATCGCTC	-0.184
GTATTAAA	0.166
CAGGCTGC	-0.135
